Tested on: Lin1840r R572K mutant
Conditions: R572K vs WT

## OC[C@H]1O[C@@H](O[C@H]2[C@H](O)[C@@H](CO)OC(O)[C@@H]2O)[C@H](O)[C@@H](O)[C@@H]1O (some centres unmarked) [Lam2, laminaribiose]
  kcat of R572K relative to WT: 1.5–3.0 times smaller

## OC[C@H]1O[C@@H](O[C@H]2C(O)O[C@H](CO)[C@@H](O)[C@@H]2O)[C@H](O)[C@@H](O)[C@@H]1O (some centres unmarked) [Sop2, sophorose]
  kcat of R572K relative to WT: 1.5–3.0 times smaller

Source: publication PMC4757417, “Functional and Structural Analysis of a β-Glucosidase Involved in β-1,2-Glucan Metabolism in Listeria innocua” (PLoS ONE, 2016)
